# Data as given in article PMC6136799, “The Npa1p complex chaperones the assembly of the earliest eukaryotic large ribosomal subunit precursor” (PLoS Genetics, 2018).
# Results are given in words; binding and its absence hold for the method and conditions named. In cells and extracts the contact can be indirect. Some entries that bind do so weakly or less than the wild type.
# T1: Dbp6p-FPZ (S. cerevisiae) (UniProt P53734)
# T1 sequence: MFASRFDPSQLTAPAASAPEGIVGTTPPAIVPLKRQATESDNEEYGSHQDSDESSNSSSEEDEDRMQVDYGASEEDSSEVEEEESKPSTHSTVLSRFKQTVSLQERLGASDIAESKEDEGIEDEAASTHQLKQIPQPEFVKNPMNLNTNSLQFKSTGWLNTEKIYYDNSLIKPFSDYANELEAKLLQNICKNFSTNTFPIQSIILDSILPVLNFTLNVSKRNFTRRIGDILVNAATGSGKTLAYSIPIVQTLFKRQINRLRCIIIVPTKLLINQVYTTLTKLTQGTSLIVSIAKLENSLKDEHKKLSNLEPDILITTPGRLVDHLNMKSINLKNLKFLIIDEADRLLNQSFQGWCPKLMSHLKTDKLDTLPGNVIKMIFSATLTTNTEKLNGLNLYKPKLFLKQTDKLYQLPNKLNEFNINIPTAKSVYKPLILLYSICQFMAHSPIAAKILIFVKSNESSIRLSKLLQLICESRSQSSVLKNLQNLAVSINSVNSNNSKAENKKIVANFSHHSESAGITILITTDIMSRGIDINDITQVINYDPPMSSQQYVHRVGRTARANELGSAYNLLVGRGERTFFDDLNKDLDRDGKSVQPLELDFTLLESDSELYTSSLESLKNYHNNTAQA
# Tests used:
# [1] = target: T1, Dbp6p-FPZ (S. cerevisiae); assay: co-IP; tandem affinity purification of the FPZ-tagged bait from yeast extract (IgG sepharose, PreScission protease, anti-Flag beads, Flag peptide elution); buffers with 10 mM MgCl2 and 150 mM NaCl, 4°C; Coomassie staining, Western; also rrn3/RSA3-FPZ cells at 24°C or shifted to 37°C for 6 hours, and cells depleted of Npa1p or Npa2p where binding is kept
# [2] = target: T1, Dbp6p-FPZ (S. cerevisiae); assay: co-IP; tandem affinity purification of the FPZ-tagged bait from yeast extract cleared by two ultracentrifugation steps (IgG sepharose, PreScission protease, anti-Flag beads, Flag peptide elution); buffers with 100 mM MgCl2 and 150 mM NaCl, 4°C; Coomassie or silver staining, Western; also from cells depleted of Npa2p, Dbp6p or Nop8p
binder,measurement,setting,value
"Npa2p (protein, UniProt P47108 1-1174) MGDLTEELSIPDNAQDLSKLLRSTSTKPHQIAEIVSKFDKLETYFPKKEIFVLDLLIDRLNNGNLDDFKTSEHTWIIFTRLLDAINDPISIKKLLKKLKTVPVMIRTFFLWPKDKLLTRSVSFIKAFFAINDYLIVNFSVEESFQLLEHAINGLSSCPTTDFALSYLQDACNLTHVDNITTTDNKIATCYCKHMLLPSLRYFAQTKNSASSNQSFIRLSHFMGKFLLQPRIDYMKLNKKFVQENASEITDDMAYYYFATFVTFLSKDNFAQLEVIFTILGAKKPSLECRFLNLLSESKKTVSQEFLEALLLEMLASTDESGVLSLIPIILKLDIEVAIKHIFRLLELIQLENLNDPLFSSHIWDLIIQSHANARELSDFFAKINEYCSRKGPDSYFLINHPAYVKSITKQLFTLSSLQWKNLLQALLDQVNHDSTNRVPLYLIRICLEGLSEGASRATLDEVKPILSQVFTLESFNNSLQWDLKYHIMEVYDDIVPAEELEKIDYVLSSNIFDTTSADVEELFFYCFKLREYISFDLSDAKKKFMRHFEILDEERKSNLSYSVVSKFATLVNNNFTREQISSLIDSLLLNSTNLSSLLKNDDIFEETNITYALINKLASSYHQTFALEALIQIPIQCINKNVRVALINNLTCESFCLDSATRECLLHLLSSPTFKSNIETNFYELCEKTIMSPEMAISETGDEKKEIEDKISIFEKVWTNHLSQAKEPVSEKFLESGYDIVKQSMSLSNGDSKLIIAGFTIAKFLKPDNKHRDIQGMAISYAVKILENYSENFESETIPLFRISMSTLYKIITTGQGDISKHKSRILDIFSKIMLRYHSKKVYHAPEEQEMFLVHSLLTENKLEYIFAEYLNIEHTDKCDSALGFCLEESLKQGPDAFNRLLWNSAKSFSTISQPCAEKFVRVFIIMSKRIARDNNLGHHLFVIALLEAYTYCDIEKFGYKSYLLLFNAIKEFLVSKPWLFSQYCIEMLLPFCLKTLAFIVNHESTDEINEGFINIIEVIDHMLLVHRFKFSNRHHLFNSVLCQILEIIAIHDGTLCANSADAVARLITNYCEPYNVSNAQNGQKNNLSSKISLIKQSIRKNVLVVLTKYIQLSITTQFSLNIKKSLQPGIHAIFDILSQNELNQLNAFLDTPGKQYFKALYLQYKKVGKWRED",binding,[1],binds
same,binding,[2],no binding (condition: 100 mM MgCl2)
